56 compounds from paper PMC4336329 (PLoS ONE, 2015) can be followed below.

Each structure is given as a SMILES string. The whole screen tested about 310,000 compounds, of which about 2,200 (0.71%) showed an effect of 50% or more. Effects have a minus sign here. The list shows a part of the results.

The target in this experiment is human ether-à-go-go-related gene (hERG) potassium channel (human, UniProt Q12809). The experiment can be described thus: primary screen, population patch clamp on CHO cells stably expressing hERG.
Sequence of human ether-à-go-go-related gene (hERG) potassium channel (Q12809 whole entry, looked up): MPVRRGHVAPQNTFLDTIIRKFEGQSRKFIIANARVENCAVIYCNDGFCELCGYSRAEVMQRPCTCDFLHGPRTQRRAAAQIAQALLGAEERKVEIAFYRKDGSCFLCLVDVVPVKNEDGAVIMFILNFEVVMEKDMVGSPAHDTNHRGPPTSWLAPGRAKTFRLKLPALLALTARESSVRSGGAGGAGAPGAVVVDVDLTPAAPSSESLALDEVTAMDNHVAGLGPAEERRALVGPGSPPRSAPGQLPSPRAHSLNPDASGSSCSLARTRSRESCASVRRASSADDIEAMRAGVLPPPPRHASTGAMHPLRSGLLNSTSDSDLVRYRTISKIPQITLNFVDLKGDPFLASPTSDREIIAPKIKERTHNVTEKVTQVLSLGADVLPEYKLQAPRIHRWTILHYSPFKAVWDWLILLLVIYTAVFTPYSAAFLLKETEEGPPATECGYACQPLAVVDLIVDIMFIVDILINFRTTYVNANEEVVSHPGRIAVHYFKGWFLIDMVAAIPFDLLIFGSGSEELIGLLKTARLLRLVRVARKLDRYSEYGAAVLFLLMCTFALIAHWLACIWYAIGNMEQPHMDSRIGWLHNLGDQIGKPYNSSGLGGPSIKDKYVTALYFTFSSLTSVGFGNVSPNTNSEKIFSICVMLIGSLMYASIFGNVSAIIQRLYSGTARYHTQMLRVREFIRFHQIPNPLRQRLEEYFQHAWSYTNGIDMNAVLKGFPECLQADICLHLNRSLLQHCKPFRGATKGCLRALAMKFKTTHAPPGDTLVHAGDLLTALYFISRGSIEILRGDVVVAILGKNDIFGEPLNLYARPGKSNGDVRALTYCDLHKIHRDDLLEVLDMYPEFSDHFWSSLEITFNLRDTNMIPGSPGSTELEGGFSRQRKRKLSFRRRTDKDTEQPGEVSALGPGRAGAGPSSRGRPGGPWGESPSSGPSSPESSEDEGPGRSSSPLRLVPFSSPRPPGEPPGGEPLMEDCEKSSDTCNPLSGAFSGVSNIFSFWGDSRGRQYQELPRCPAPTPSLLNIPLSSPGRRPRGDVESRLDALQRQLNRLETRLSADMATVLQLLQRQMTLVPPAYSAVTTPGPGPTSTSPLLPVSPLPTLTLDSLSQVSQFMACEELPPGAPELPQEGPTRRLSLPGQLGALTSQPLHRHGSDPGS
In the case of `CC(=O)COc1ccc2c(C)c(C)c(=O)oc2c1`, the “hERG current change (%, negative = inhibition) at 1uM” value worked out at 9.03%.
To `CCN(CC(=O)NC1CCS(=O)(=O)C1)S(=O)(=O)c1c(C)c(C)cc(C)c1C` (centres unmarked) belongs 7.13%; to `Cc1onc(-c2ccccc2Cl)c1C(=O)Nc1ccc(F)c(F)c1`, 4.99%.
To `O=C(CN(Cc1cccs1)S(=O)(=O)c1ccc(S(=O)(=O)N2CCCCC2)cc1)Nc1ccccc1` belongs 17.7%.
To `Cc1ccc(SCC(=O)c2c(C)nc3ccccn23)cc1` belongs 26.7%; to `CN(C)CCN(C(=O)c1ccco1)c1nc2cc3c(cc2s1)OCCO3.Cl`, -3.4%.
Turning to `COc1ccccc1N(CC(=O)N/N=C/c1c(O)ccc2ccccc12)S(C)(=O)=O`, the “hERG current change (%, negative = inhibition) at 1uM” value stood at 17.5%.
To `C=CCSc1nc2c(c(=O)[nH]c(=O)n2C)n1C(C)C` belongs 7.93%; to `COc1cccc(/C=N/Nc2ncnc3scc(-c4ccccc4)c23)c1OC`, 15%; to `Cc1cccc(NC(=O)CSc2ccc3nnc(-c4cccnc4)n3n2)c1`, -2.62%.
To `COc1ccc(CNC(=O)COC(=O)CN2C(=O)COc3ccccc32)cc1` belongs -3.25%; to `CCCn1c(N)c(C(=O)CSc2nc(N)cc(=O)[nH]2)c(=O)n(C)c1=O`, 12.5%; to `CC1(C)Cc2c(cnn2-c2ccccc2)C(NC(=O)CCc2ccc(=O)[nH]n2)C1` (centres unmarked), 8.83%.
To `COc1cc(-c2cc[n+](C)cc2)ccc1O.[Br-]` belongs 4.62%; to `CC1CCN(S(=O)(=O)c2ccc3[nH]c(=O)[nH]c3c2)CC1`, 0.708%.
On to `CCC(c1nnnn1C1CCCC1)N1CCN(c2cccc(OC)c2)CC1.Cl` (centres unmarked), for which the “hERG current change (%, negative = inhibition) at 1uM” value turned out to be 4.7%.
On to `COCCCn1c(SCc2cc(=O)[nH]c3ccccc23)nnc1-c1ccco1`, for which the “hERG current change (%, negative = inhibition) at 1uM” value is recorded as 9.42%.
Regarding `O=C(O)CCC(=O)Nc1ccc2c(c1)oc1ccccc12`, the “hERG current change (%, negative = inhibition) at 1uM” value is listed as 2.28%.
To `O=C(NCC1CCCO1)c1cccc(Oc2ccc([N+](=O)[O-])cc2Cl)c1` (centres unmarked) belongs -21.7%; to `Cc1cc(NC(=O)CCC(=O)N(c2cccc(F)c2)C(C(=O)NC2CCCC2)c2ccncc2)no1` (centres unmarked), 2.81%; to `Cn1nc(-c2ccccc2)cc1NC(=O)c1ccccc1`, 16.3%.
Take `Cc1ccccc1[C@]1(C)ON(c2ccccc2C(F)(F)F)C1=O`: the “hERG current change (%, negative = inhibition) at 1uM” value is given as 14.2%.
To `C=CCn1c(=O)c(C(=O)NCCc2ccc(Cl)cc2)c(O)c2cc(OC)c(OC)cc21` belongs 17%; to `CCc1ncc(CN2CCC(C(=O)Nc3cccc(-c4cscn4)c3)CC2)cn1`, 3.38%; to `CC(C)c1ccc(NC(=O)c2snc3ccc(Cl)cc23)cc1`, 11.6%.
To `CCOc1ccc(N(CC(=O)Nc2ccc(C)cc2)S(C)(=O)=O)cc1` belongs 9.55%; to `O=C(Cc1ccc(NS(=O)(=O)c2ccc(F)cc2)cc1)NCc1cccnc1`, 12.4%.
To `COC(=O)CCCCCN1C(=O)NC(c2ccccc2)C(C(=O)OCc2ccccc2)=C1C` (centres unmarked) belongs 16%; to `O=C(c1ccc(S(=O)(=O)N2CCOCC2)cc1)N1CCN(c2cccc(Cl)c2)CC1`, -5.84%.
For the compound `N#CC1(NC(=O)CSc2nc3ccccc3s2)CCCCC1`, the “hERG current change (%, negative = inhibition) at 1uM” value stood at 1.72%.
`O=C(Nc1nnc(-c2ccc(Cl)cc2)o1)NC1CCCCC1`: the “hERG current change (%, negative = inhibition) at 1uM” value stood at 12%.
To `COc1cccc(N2C(=O)NC(=O)/C(=C/c3ccc4c5c(cccc35)CC4)C2=O)c1` belongs 6.33%; to `COCC(C)NC(=O)C(C)Oc1ccccc1` (centres unmarked), 8.59%.
To `Cc1ccc(NC(=O)c2ccc(NS(=O)(=O)c3c(C)noc3C)cc2)cc1C` belongs 5.25%; to `O=C(NC(=S)Nc1ccccc1Br)c1cccnc1`, 12.6%.
To `CCOc1ccc(Nc2cc(Nc3ccccc3OCC)nc(C=C(C#N)C#N)n2)cc1` belongs 14.5%; to `CCOC(=O)C1CCN(C(=O)Nc2ccc(NC(=O)C3CCN(C(=O)OCC)CC3)cc2)CC1`, -24.8%.
Take `COc1ccccc1Nc1nc(N)nc(CSc2nc(C)cc(C)n2)n1`: the “hERG current change (%, negative = inhibition) at 1uM” value turned out to be 7.95%.
To `CC(C)c1nc2ccccn2c1NC1CCCCC1` belongs 0.171%; to `CC1CCC(NC(=O)C2(C)CCC(=O)N2Cc2cccnc2)CC1` (centres unmarked), 13.1%.
To `Cc1cc(NC(=O)Cn2cc(C(F)(F)F)cc(Cl)c2=O)no1` belongs 3.77%; to `COC(=O)[C@H](C)NC(=O)Nc1ccccc1F`, 3.25%; to `COC(=O)COc1cccc2c(=O)n(CC(=O)Nc3ccc4c(c3)OCCO4)ccc12`, 7.47%.
For the compound `O=C(Nc1ccc2nn(-c3ccccc3)nc2c1)c1ccco1`, the “hERG current change (%, negative = inhibition) at 1uM” value came out at 7.8%.
To `Cc1ccc2c(c1)N(CC(=O)NC1CCC(C)CC1)C(=O)CO2` (centres unmarked) belongs 4.88%.
Regarding `O=C(N=Nc1c(O)[nH]c2ccc(Cl)cc12)c1cc(-c2cccs2)nc2ccccc12`, the “hERG current change (%, negative = inhibition) at 1uM” value came out at 13%.
To `O=C(O)c1cnn(-c2ccccc2)c1C(F)(F)F` belongs 11.1%; to `O=C(CN1CCN(Cc2ccccc2Cl)C1=O)NCc1ccccn1`, 13.7%; to `CCc1ccc(OCCCC(=O)NCc2ccco2)cc1`, 12.5%.
To `COc1ccc(-c2nc3ccccc3c(=O)[nH]2)cc1` belongs 10.4%; to `CCOC(=O)NC(=O)C(=CNNc1ncc(C(F)(F)F)cc1Cl)C(=O)NC(=O)OCC`, 13.9%; to `C=C(C)C(=O)Nc1cccc(C2=NOC3(C2)C[C@@H](C(N)=O)N(C(=O)c2cc([N+](=O)[O-])cc([N+](=O)[O-])c2C)C3)c1` (some centres unmarked), 11.8%.
To `O=C(Nc1ccccc1)C1C2/C=C\CCCCC21` (centres unmarked) belongs 11.4%; to `COc1cc(OC)c(/C=N/NC(=O)c2ccc([N+](=O)[O-])cc2)cc1Br`, 14.8%; to `CC1=C(C#N)C(NC(=O)C(C)(C)C)(C(F)(F)F)C(=O)N1` (centres unmarked), 6.23%.
Turning to `COc1cccc(/C=N/NC(=O)C(=O)NCc2ccco2)c1O`, the “hERG current change (%, negative = inhibition) at 1uM” value is on record as 5.24%.
